# According to paper PMC12820563:
# Some of the results follow. The list includes weakly bound sequences.
# Target: T1, MBP-FoxP3dN (UniProt Q99JB6)
# T1 sequence: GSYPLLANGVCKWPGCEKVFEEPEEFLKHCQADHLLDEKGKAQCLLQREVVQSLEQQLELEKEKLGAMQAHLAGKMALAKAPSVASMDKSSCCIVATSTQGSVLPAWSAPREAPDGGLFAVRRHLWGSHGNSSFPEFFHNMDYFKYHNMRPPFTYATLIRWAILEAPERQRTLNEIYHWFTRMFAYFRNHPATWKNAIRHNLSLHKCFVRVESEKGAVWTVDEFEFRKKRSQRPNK
# Experiment: PD-seq (MBP pull-down with sequencing)
# Conditions: 20 mM Tris-HCl pH 7.5, 100 mM NaCl, 1.5 mM MgCl2, 0.4 uM protein, 0.1 uM dsDNA library, 30 min, room temperature, amylose pull-down; high values mean tight binding; double strand, one strand shown
row,Sequence,binding signal (RPM ratio (pull-down/input))
1,GATGATTGTTCTCCCAGCTGATGAATTATTCGCCTCGAGTAAACAAATTTTCCTAATCTTTCTGTTCAAGCGCCATCTAC,0.568
2,GATGATTGTTCTCCCAGCTGATGAATTAGAATACTCGAGTAAACAAATTTTCCTAATCTTTCTGTTCAAGCGCCATCTAC,0.561
3,GATGATTGTTCTCCCAGCTGATGAATTCTCTCTGTCGAGTAAACAAATTTTCCTAATCTTTCTGTTCAAGCGCCATCTAC,0.215
4,GATGATTGTTCTCCCAGCTGATGAATTCAACACTTCGAGTAAACAAATTTTCCTAATCTTTCTGTTCAAGCGCCATCTAC,0.469
5,GATGATTGTTCTCCCAGCTGATGAATTATCCATTTCGAGTAAACAAATTTTCCTAATCTTTCTGTTCAAGCGCCATCTAC,0.309
6,GATGATTGTTCTCCCAGCTGATGAATTCGTCAAATCGAGTAAACAAATTTTCCTAATCTTTCTGTTCAAGCGCCATCTAC,0.211
7,GATGATTGTTCTCCCAGCTGATGAATTGTCACGTTCGAGTAAACAAATTTTCCTAATCTTTCTGTTCAAGCGCCATCTAC,0.577
8,GATGATTGTTCTCCCAGCTGATGAATTATTTCACTCGAGTAAACAAATTTTCCTAATCTTTCTGTTCAAGCGCCATCTAC,0.389
9,GATGATTGTTCTCCCAGCTGATGAATTCAAACTCTCGAGTAAACAAATTTTCCTAATCTTTCTGTTCAAGCGCCATCTAC,0.412
10,GATGATTGTTCTCCCAGCTGATGAATTCGCTCCATCGAGTAAACAAATTTTCCTAATCTTTCTGTTCAAGCGCCATCTAC,0.292
11,GATGATTGTTCTCCCAGCTGATGAATTGTAGCCCTCGAGTAAACAAATTTTCCTAATCTTTCTGTTCAAGCGCCATCTAC,0.759
12,GATGATTGTTCTCCCAGCTGATGAATTCGGATCATCGAGTAAACAAATTTTCCTAATCTTTCTGTTCAAGCGCCATCTAC,0.395
13,GATGATTGTTCTCCCAGCTGATGAATTCCGCTGGTCGAGTAAACAAATTTTCCTAATCTTTCTGTTCAAGCGCCATCTAC,0.76
14,GATGATTGTTCTCCCAGCTGATGAATTATCTGATTCGAGTAAACAAATTTTCCTAATCTTTCTGTTCAAGCGCCATCTAC,0.321
15,GATGATTGTTCTCCCAGCTGATGAATTATCCGCTTCGAGTAAACAAATTTTCCTAATCTTTCTGTTCAAGCGCCATCTAC,0.348
16,GATGATTGTTCTCCCAGCTGATGAATTGATTTATTCGAGTAAACAAATTTTCCTAATCTTTCTGTTCAAGCGCCATCTAC,2.58
17,GATGATTGTTCTCCCAGCTGATGAATTTTTGACGTCGAGTAAACAAATTTTCCTAATCTTTCTGTTCAAGCGCCATCTAC,0.3
18,GATGATTGTTCTCCCAGCTGATGAATTGATTCCGTCGAGTAAACAAATTTTCCTAATCTTTCTGTTCAAGCGCCATCTAC,0.334
19,GATGATTGTTCTCCCAGCTGATGAATTCCATGGATCGAGTAAACAAATTTTCCTAATCTTTCTGTTCAAGCGCCATCTAC,0.268
20,GATGATTGTTCTCCCAGCTGATGAATTAATCCAATCGAGTAAACAAATTTTCCTAATCTTTCTGTTCAAGCGCCATCTAC,0.273

row,Sequence,binding signal (RPM ratio (pull-down/input))
1,GATGATTGTTCTCCCAGCTGATGAATTGCACACCTCGAGTAAACAAATTTTCCTAATCTTTCTGTTCAAGCGCCATCTAC,0.903
2,GATGATTGTTCTCCCAGCTGATGAATTCTAGCCATCGAGTAAACAAATTTTCCTAATCTTTCTGTTCAAGCGCCATCTAC,1.35
3,GATGATTGTTCTCCCAGCTGATGAATTCATGCTATCGAGTAAACAAATTTTCCTAATCTTTCTGTTCAAGCGCCATCTAC,0.992
4,GATGATTGTTCTCCCAGCTGATGAATTGTGCTGATCGAGTAAACAAATTTTCCTAATCTTTCTGTTCAAGCGCCATCTAC,2
5,GATGATTGTTCTCCCAGCTGATGAATTGAACCACTCGAGTAAACAAATTTTCCTAATCTTTCTGTTCAAGCGCCATCTAC,0.461
6,GATGATTGTTCTCCCAGCTGATGAATTATGACGTTCGAGTAAACAAATTTTCCTAATCTTTCTGTTCAAGCGCCATCTAC,0.813
7,GATGATTGTTCTCCCAGCTGATGAATTGTAGAGTTCGAGTAAACAAATTTTCCTAATCTTTCTGTTCAAGCGCCATCTAC,0.526
8,GATGATTGTTCTCCCAGCTGATGAATTTGGACCATCGAGTAAACAAATTTTCCTAATCTTTCTGTTCAAGCGCCATCTAC,0.601
9,GATGATTGTTCTCCCAGCTGATGAATTTTAAGGGTCGAGTAAACAAATTTTCCTAATCTTTCTGTTCAAGCGCCATCTAC,0.237
10,GATGATTGTTCTCCCAGCTGATGAATTATATTGGTCGAGTAAACAAATTTTCCTAATCTTTCTGTTCAAGCGCCATCTAC,3.47
11,GATGATTGTTCTCCCAGCTGATGAATTTCTACGTTCGAGTAAACAAATTTTCCTAATCTTTCTGTTCAAGCGCCATCTAC,0.287
12,GATGATTGTTCTCCCAGCTGATGAATTTGAGAAGTCGAGTAAACAAATTTTCCTAATCTTTCTGTTCAAGCGCCATCTAC,0.184
13,GATGATTGTTCTCCCAGCTGATGAATTTCGCAGATCGAGTAAACAAATTTTCCTAATCTTTCTGTTCAAGCGCCATCTAC,0.391
14,GATGATTGTTCTCCCAGCTGATGAATTATTCTGATCGAGTAAACAAATTTTCCTAATCTTTCTGTTCAAGCGCCATCTAC,0.247
15,GATGATTGTTCTCCCAGCTGATGAATTCACTAGTTCGAGTAAACAAATTTTCCTAATCTTTCTGTTCAAGCGCCATCTAC,0.437
16,GATGATTGTTCTCCCAGCTGATGAATTTAACGCCTCGAGTAAACAAATTTTCCTAATCTTTCTGTTCAAGCGCCATCTAC,0.628
17,GATGATTGTTCTCCCAGCTGATGAATTTGAAACATCGAGTAAACAAATTTTCCTAATCTTTCTGTTCAAGCGCCATCTAC,0.457
18,GATGATTGTTCTCCCAGCTGATGAATTGTACGTCTCGAGTAAACAAATTTTCCTAATCTTTCTGTTCAAGCGCCATCTAC,0.561
19,GATGATTGTTCTCCCAGCTGATGAATTTCCCCTTTCGAGTAAACAAATTTTCCTAATCTTTCTGTTCAAGCGCCATCTAC,0.24
20,GATGATTGTTCTCCCAGCTGATGAATTTAGCTGGTCGAGTAAACAAATTTTCCTAATCTTTCTGTTCAAGCGCCATCTAC,0.756
